Measurements as given in PMC4336329 (PLoS ONE, 2015).
Out of some 310,000 compounds screened, about 2,200 (0.71%) showed an effect of 50% or more. The effect is printed as a negative number. The list shows a part of the results.

Biological target: human ether-à-go-go-related gene (hERG) potassium channel (human, UniProt Q12809)
Experiment: primary screen, population patch clamp on CHO cells stably expressing hERG

human ether-à-go-go-related gene (hERG) potassium channel, sequence (Q12809 whole entry, looked up): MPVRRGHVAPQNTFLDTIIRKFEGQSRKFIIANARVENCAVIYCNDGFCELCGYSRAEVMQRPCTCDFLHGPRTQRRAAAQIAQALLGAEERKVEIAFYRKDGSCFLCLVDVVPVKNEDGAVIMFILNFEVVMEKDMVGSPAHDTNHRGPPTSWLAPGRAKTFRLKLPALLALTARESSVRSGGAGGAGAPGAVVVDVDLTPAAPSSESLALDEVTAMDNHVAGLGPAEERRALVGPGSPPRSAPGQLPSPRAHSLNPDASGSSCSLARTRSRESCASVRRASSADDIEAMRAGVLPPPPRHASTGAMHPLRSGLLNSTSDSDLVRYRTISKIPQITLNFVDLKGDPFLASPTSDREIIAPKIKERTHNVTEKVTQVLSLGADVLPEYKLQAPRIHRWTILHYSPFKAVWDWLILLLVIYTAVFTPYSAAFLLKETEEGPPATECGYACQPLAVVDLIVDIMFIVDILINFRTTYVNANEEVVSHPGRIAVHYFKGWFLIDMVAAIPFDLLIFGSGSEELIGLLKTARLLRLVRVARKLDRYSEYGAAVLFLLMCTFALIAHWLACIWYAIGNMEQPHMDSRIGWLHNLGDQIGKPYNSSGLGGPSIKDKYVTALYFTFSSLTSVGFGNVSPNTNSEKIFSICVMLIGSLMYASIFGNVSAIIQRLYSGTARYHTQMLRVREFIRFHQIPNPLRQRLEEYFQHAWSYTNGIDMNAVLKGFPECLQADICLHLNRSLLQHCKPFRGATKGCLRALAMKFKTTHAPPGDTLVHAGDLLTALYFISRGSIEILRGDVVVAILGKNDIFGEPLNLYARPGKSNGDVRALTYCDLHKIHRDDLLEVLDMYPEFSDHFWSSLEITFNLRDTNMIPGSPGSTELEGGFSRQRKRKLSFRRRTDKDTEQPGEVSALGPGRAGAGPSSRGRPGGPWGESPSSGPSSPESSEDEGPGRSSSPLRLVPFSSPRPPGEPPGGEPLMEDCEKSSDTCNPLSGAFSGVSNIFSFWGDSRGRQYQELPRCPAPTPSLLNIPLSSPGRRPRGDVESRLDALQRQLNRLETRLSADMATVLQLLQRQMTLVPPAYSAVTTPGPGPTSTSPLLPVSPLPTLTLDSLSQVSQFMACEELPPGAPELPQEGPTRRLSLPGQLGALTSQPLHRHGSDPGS

| Compound | hERG current change (%, negative = inhibition) at 1uM [%] |
| --- | --- |
| CCCNC(=O)Cn1cnc2sc(C(=O)NCCN(CC)CC)c(C)c2c1=O | 6.25 |
| CCC(=O)OCCn1c(=O)c2ccccc2c2ccccc2c1=O | 1.64 |
| CCc1nn2c(=O)cc(CSCC(=O)Nc3ccccc3F)nc2s1 | 9.69 |
| O=C(NCc1ccc(N2CCCC2=O)cc1)c1cc(COc2c(F)cccc2F)on1 | 8.5 |
| Cc1cccc(NC(=S)Nn2cnnc2)c1C | 10.9 |
| CCC(=O)c1ccc(OCC(=O)N(Cc2nnc(-c3ccccc3Cl)o2)C2CC2)cc1 | -20.1 |
| COC(=O)C1=C(c2ccccc2)C[C@@H]2CC[C@H]1N2C(=O)N1CCCC1 | 12.1 |
| Cn1c(O)c(C=NCCN2CCN(C(=O)c3ccccc3)CC2)c(=O)n(C)c1=O | 11.7 |
| Cc1nnc(SCc2cc(=O)[nH]c(N3CCN(C)CC3)n2)s1 | 1.81 |
| COc1ccc(OCc2nnc(SCC(=O)N3CCOCC3)o2)cc1 | 13.6 |
| O=S(=O)(NN1CCOCC1)c1ccc(Cl)s1 | 12.4 |
| CC(C)(C)CN1CCNC(=O)C1CC(=O)NCCc1ccccc1C(F)(F)F (stereo not shown) | 4.28 |
| CC(C)CN1C(=O)c2ccc(NC(=O)c3cccs3)cc2C1=O | -0.839 |
| CC(=O)Nc1cccc(NC(=O)CSc2ccc(C(F)(F)F)cc2[N+](=O)[O-])c1 | 0.173 |
| O=C(NCCOc1nc(N2CCCCC2)nc(N2CCOCC2)n1)Nc1ccccc1 | 5.87 |
| CCCSc1ccc(C(=O)Nc2ccc(Cl)cc2)cn1 | 12.7 |
| Cn1ncn2c(=O)c3c(nc12)-c1ccccc1CC31CCCC1 | 8.34 |
| COc1ccc(-c2ccc(SCC(=O)c3ccccc3)nn2)cc1OC | 5.96 |
| Cc1cccc(NC(=S)NNc2ncc(C(F)(F)F)cc2Cl)c1 | 12.9 |
| Cc1c(C)n(-c2ccccc2)c2ncnc(NCCCN(C)C)c12 | 6.45 |
| FC(F)(F)c1cccc(NC(=S)NCC2COc3ccccc3O2)c1 (stereo not shown) | 0.938 |
| CCOc1ccc(N(CC(=O)Nc2cccc(N(C)S(C)(=O)=O)c2)S(=O)(=O)c2ccccc2)cc1 | 8.61 |

| Compound | hERG current change (%, negative = inhibition) at 1uM [%] |
| --- | --- |
| NS(=O)(=O)c1cccc(NC(=O)CC2(CC(=O)O)CCCC2)c1 | 26.1 |
| Cc1oc(C(=O)O)cc1COc1ccc2c(C)cc(=O)oc2c1 | 3.18 |
| CCOc1ccc(C(=O)NCC(=O)Nc2ccc(N3CCOCC3)cc2)cc1OCC | 3.18 |
| CCn1cc(/C=C(\NC(=O)c2ccccc2Cl)C(=O)NCCN2CCOCC2)c2ccccc21 | 5.13 |
| Cc1ccc(S(=O)(=O)N2CCN(C(=O)CCC(=O)NCCc3ccc(F)cc3)CC2)cc1 | -1.58 |
| NNC(=S)Nc1cccc(-c2n[nH]c(=S)o2)c1 | 6.93 |
| O=[N+]([O-])c1cc([N+](=O)[O-])c(Oc2cccc(Cl)c2Cl)cc1NN1CCCCC1 | 5.15 |
| CN(/N=C/c1cc([N+](=O)[O-])ccc1O)c1ccccc1 | 9.83 |
| COc1ccc(-n2c(-c3ccco3)n[nH]c2=S)cc1 | 11.5 |
| Cc1ccc(OCc2nnc(SCC(=O)CC(=O)Nc3ccccc3)o2)cc1 | 11 |
| COCCCNC(=O)c1cc2cc3cc(OC)ccc3nc2o1 | -8.97 |
| CCS(=O)(=O)n1nc(-c2ccccc2)cc1N | 13.8 |
| CC1(C)CC(=O)c2cnc(NC3CC3)nc2C1 | 9.57 |
| CCOc1ccc(NS(=O)(=O)c2ccc(Cl)c(C(=O)N(C)Cc3cccnc3)c2)cc1 | 4.62 |
| CCN(c1ccc2c(c1)OCO2)S(=O)(=O)c1cc(Br)cc2c1N(C(C)=O)CC2 | 2.27 |
| CCNC(=O)n1nccc1C(C)Oc1cccc(C(F)(F)F)c1 (stereo not shown) | -6.21 |
| CC(N=C1NS(=O)(=O)c2ccccc21)C(=O)NCCCc1ccccc1 (stereo not shown) | 13 |
| Cc1nc(NC(=O)c2ccncc2)sc1C(=O)N(C)C | 12.3 |
| COc1cc(C(NC=O)C(=O)Nc2c(C)cccc2C)ccc1O (stereo not shown) | 5.3 |
| CC(=O)N1CCc2cc(S(=O)(=O)NCCC(=O)Nc3cccc(C)c3)ccc21 | 8.66 |
| NS(=O)(=O)c1cccc(NC(=O)COC(=O)C2CCN(S(=O)(=O)c3cccs3)CC2)c1 | 9.68 |
